About 450 (0.94%) of roughly 48,000 compounds were called active. Not shown: some 19% with an inconclusive outcome. Calls follow the shape of the dose curve; as a rule, active = well fitted inhibition curve with a large enough effect; inconclusive = small, poorly fitted or top-dose-only effect; inactive = no such curve, though single readings can be large or run the other way. This is one part of the list.
Assay: Primary qHTS for Identification of Small Molecule Inhibitors of Huntingtin Promoter Activity; also: nearly all actives have a fitted effect of over 50% in size
Settings: HEK293 HTT promoter firefly luciferase reporter (activity 0% = vehicle and -100% = no light), 24 h; series mostly up to 57.5 µM; activity change, negative = inhibition: at the top concentration
Procedure, shortened: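 Firefly luciferase signal from promoter-reporter HEK293 cells was scaled between vehicle (0%) and zero RLU (-100%). Compounds were tested at final concentrations of up to 57.5 uM over 24 h at 37 degrees C. PTC124 at 50 uM final served as control inhibitor.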

Activity change, negative = inhibition, inactive:
Fc1ccc(-c2cc(-c3nc(-c4ccc(Cl)cc4)no3)[nH]n2)cc1 -15.5%
CC(C)(C)OC(=O)N1CCC(c2c(C(=O)N3CCN(C(=O)c4ccco4)CC3)cnn2-c2cccc(Cl)c2)CC1 -22.5%
CC(=O)c1ccc(NC(=O)c2nc(-c3ccc(Cl)cc3)n3c2CCCCC3)cc1 -11.4% [at 11.5 µM]
COC(=O)c1cc(NC(=O)CC2C(=O)OCCN2Cc2ccccc2)cc(C(=O)OC)c1 (stereo not given) -17.4% [at 11.5 µM]
COc1cccc(OCC(=O)NC2CC(=O)N(c3cccc(OC)c3)C2)c1 (stereo not given) -6.14%
Cc1ccccc1CSc1nc2c(sc3ccccc32)c(=O)n1CCCC(=O)NCCCOC(C)C -13.5%
Cc1cc(C)c2c(=O)cc(C(=O)Nc3sc4c(c3C(=O)NCc3ccco3)CCCC4)oc2c1 5.33%
CS(=O)(=O)CC[C@@H](C(=O)NCCc1ccccc1)N1Cc2ccccc2C1=O 0.19%
Cc1cccc(OCC(=O)N2CCC(c3nc4ccccc4o3)CC2)c1C -8.72%
NC(=O)N1c2ccccc2CC(=O)c2ccccc21
COc1ccc(NC(=O)Cn2c(=O)c3ccccc3n3nncc23)cc1Cl -3.28%
COCc1cc(C)nc2c1C(=O)NC(c1ccc(NC(C)=O)cc1)N2Cc1ccccc1 (stereo not given) 0.139%
Cc1ccc(Nc2c3c(nc4nncn24)CCC3)c(C)c1 -15.4%
COc1ccc2c(c1)-c1nc(NC(=O)c3cccc(Br)c3)sc1CC2 -18.6%
Cc1ccc(NC(=O)Cn2nnc(-c3ccccc3)n2)c(C)c1 -4.39%
O=C(C1COc2ccccc2O1)N(Cc1cccnc1)c1nc2c(F)cccc2s1 (stereo not given) -11.7%
CCOC(=O)c1c(NC(=O)c2cc(-c3cccc(Cl)c3)on2)sc(C(C)=O)c1C -3.13%
CCOc1ccc(S(=O)(=O)c2cn(CC)c3ccc(F)cc3c2=O)cc1 -28.7%
COc1ccccc1C1C(C(=O)N2CCCCC2)=C(C)Nc2nc3ccccc3n21 (stereo not given) -13.2%
COc1cccc(/C=C/c2nc(C#N)c(NC3CCCCC3)o2)c1 -0.858%
CSc1ccc(CCNC(=O)Cn2c(C)c3cnn(-c4ccccc4)c(=O)c3c2C)cc1 -5.81%
COc1cccc(-n2c(=O)c3sc4ccccc4c3n(Cc3c(F)cccc3Cl)c2=O)c1 -6.75%
Cc1ccc(CNC(=O)c2ccc(Cn3c(SCc4ccc(F)cc4)nc4cccnc43)cc2)o1 1.25%
O=c1n(Cc2ccc(F)cc2)c2ccccc2c2nc(-c3ccccc3)nn12 5.82%
CCOC(=O)c1c(C)oc2nc(C)nc(NCC3CCN(Cc4cc(C)ccc4C)CC3)c12 0%
Cc1ccc(N2C(=O)C(CC(=O)Nc3cccc(F)c3)N(CCc3ccccc3F)C2=O)cc1 (stereo not given) -6.09%
Cc1ccccc1OCC(=O)Nc1ccc(-c2nc3cc(Cl)cc(Cl)c3o2)cc1 -3.73%
COc1cccc(NC(=O)N(CCC(C)C)C2CCN(C(C)C)CC2)c1 -10.3%
Cc1ccc(CNC(=O)C2CCN(S(=O)(=O)c3ccc4nc5c(c(C(=O)O)c4c3)CC(C)CC5)CC2)cc1 (stereo not given) -9.97%
CCc1cnc2c(c1SCC(=O)NCc1ccc(C)cc1)c(=O)n(C)c(=O)n2C -37.8%
C[C@@H](N)C(=O)O -1.07%
CC(=O)c1ccc(NS(=O)(=O)c2ccc(Br)s2)cc1 -8.69%
CCOc1ccc(C(=O)OCc2cc(=O)n3nc(C4CC4)sc3n2)cc1 -20.6%
COc1cc(Cl)c(C)cc1NC(=O)c1cc2c(=O)oc3ccccc3c2s1 17%
CCn1cc(C(=O)N2CCN(c3cc(Cl)ccc3C)CC2)c(=O)c2cc(S(=O)(=O)N3CCCC3)ccc21 -4.12%
COc1cc2nc(SCC(=O)Nc3ccccc3C)n3nc(CCn4c(C)nc5ccccc54)nc3c2cc1OC -3.05%
CC(C)(C)C1CCc2c(sc(NC(=O)c3ccco3)c2C(=O)Nc2ccccc2Cl)C1 (stereo not given) -19%
CCOCCCNC(=O)c1cn(CC)c2ccc(S(=O)(=O)N3CCOCC3)cc2c1=O -5.08%
CCOC(=O)CSc1nc2ccc(NC(=O)COc3ccc(F)cc3)cc2s1 -4.44%
Cc1cccc2sc(N(Cc3cccnc3)C(=O)CCOc3ccccc3)nc12 -9.99%
COc1ccc(CNC(=O)C2=CC(c3ccc(OC)c(OC)c3)=NS(=O)(=O)N2C)cc1 -16.3%
CCOc1ccc(NC(=O)N(Cc2cn(CC)c3ccccc23)C2CCCCCC2)cc1 -12.8%
Cc1cc(C)c(NC(=O)C2CCN(S(=O)(=O)c3c(C)noc3/C=C/c3ccccc3F)CC2)c(C)c1 -16.8%
CN(C)c1ccc(C(CNC(=O)c2ccccc2Cl)N2CCCC2)cc1 (stereo not given) 11.1%
Cc1nnsc1C(=O)Oc1ccc(Cl)cc1 -9.25%
CN1C(=O)Cc2cc(S(=O)(=O)NCc3ccc(Cl)cc3)ccc21 -19.8%
O=C(NCc1ccccc1)C(=O)NCC(c1cccs1)S(=O)(=O)c1cccs1 (stereo not given) -14.6%
Cc1ccc(Cn2c(=O)n(CCCCC(=O)NCc3ccc4c(c3)OCO4)c(=O)c3ccccc32)cc1 -8.67%
COc1cccc(N2CCN(C3=NS(=O)(=O)C(c4ccc(C)cc4)=C3C)CC2)c1 -23%
CCC(Sc1nnc2c(n1)[nH]c1ccccc12)C(=O)Nc1ccccc1OC (stereo not given) -0.837%
Cc1cc(C)cc(C(=O)NCCc2csc(-c3ccc(C(F)(F)F)cc3)n2)c1 -19.3%
CCc1ccccc1NC(=O)CSc1ncc2c(n1)-c1cc(Cl)ccc1N(Cc1ccccc1)S2(=O)=O -15.7%
COc1ccc(CCNC(=O)CCc2c(C)nc3c4cccnc4nn3c2C)cc1OC 0.767%
CCCCn1cc(S(=O)(=O)c2ccc(OC)cc2)c(=O)c2cc(F)c(N3CCOCC3)cc21 3.42%
Cc1c(C(=O)OCC2CCCCC2)[nH]c2c1C(=O)CC(c1ccccc1Cl)C2 (stereo not given) -2.37%
CCc1ccc(-n2nc(C)c3c(C)cc(=O)n(CC(=O)Nc4cc(C)ccc4C)c32)cc1 -19.2%
COc1ccc(NC(=O)c2ncn(-c3ccccc3)n2)cc1Cl 58.6%
CC(=O)Nc1c(C)nn(-c2ccccc2)c1N1CCC(C(=O)Nc2cc(F)ccc2F)CC1 3.24%
Cc1ccc(N2C(=O)c3n[nH]c(C)c3C2c2ccccc2Cl)cc1 (stereo not given) -18.7%
COc1ccccc1NC(=O)N1CCN(Cc2nc3ccc(C)cc3o2)CC1 -18.6%
Cn1cc(S(=O)(=O)N2CCCC2)cc1C(=O)N1CCN(c2cccc(Cl)c2)CC1 -24.2%
Cc1cc(C)c(NC(=O)Cn2c(=O)n(CC3CCCO3)c(=O)c3ccccc32)c(C)c1 (stereo not given) -7.18%
Cc1ccc2oc(C(=O)Nc3ccc(S(=O)(=O)N4CCCCCC4)cc3)cc(=O)c2c1 -4.24%
CCc1ccc(NC(=O)c2sc(-n3nc(C)c(Cc4ccc5c(c4)OCO5)c3C)nc2C)cc1 0.279%
CCOc1ccccc1NC(=O)Cn1c(=O)n(-c2ccc(C)c(C)c2)c(=O)c2oc3ccccc3c21 5.01%
O=C(Oc1ccccc1F)c1nc(SCc2ccccc2F)ncc1Cl -5.96%
COc1ccccc1NC(=O)Cn1nc2c3cc(F)ccc3n(Cc3cccc(C)c3)cc-2c1=O 9.93%
CC(C)Cn1cnc2c(N)nc3ccccc3c21
CCN1CCC(N(Cc2ccc3c(c2)OCO3)C(=O)Nc2cccc(C)c2C)CC1 -4.61%
COc1ccc(Nc2ncc3c(n2)CCN(Cc2cccc(F)c2F)C3)c(OC)c1 -1.68%
Cc1ccc2nc(-c3cccc(NC(=O)CSc4ccc(Cl)cc4)c3)oc2c1 29.1%
CCc1ccc(Nc2nc3c(S(=O)(=O)c4ccc(C)cc4)nnn3c3ccsc23)cc1 -13.5%
Cc1ccc(S(=O)(=O)c2nnn3c2nc(N2CCCC(C)C2)c2cc(Cl)ccc23)cc1C (stereo not given) -2.41%
Cc1ccc(NC(=O)Cn2c(=O)n(-c3ccccc3)c(=O)c3ccc(C(=O)NCc4ccc5c(c4)OCO5)cc32)cc1 -22.4%
CCN(C(=O)Cn1cc(S(=O)(=O)N2CCN(c3ccccc3F)CC2)c2ccccc2c1=O)c1ccc(C)c(C)c1 -12.2%
Oc1c(C(c2ccccc2Cl)N2CCC(O)CC2)sc2nc(-c3ccco3)nn12 (stereo not given) 12.8%
Cc1nnc2c3ccccc3nc(Nc3ccccc3C(=O)O)n12 -26.9%
COc1ccc(S(=O)(=O)Nc2cc(-c3cn4ccc(C)cc4n3)ccc2C)cc1OC 16%
CCn1ccc2cc(S(=O)(=O)N3CCC(C(=O)NCC(C)c4ccccc4)CC3)ccc21 (stereo not given) -19%
Cc1ccc(-n2ncc(C(=O)NCc3ccccn3)c2C2CCN(C(=O)OC(C)(C)C)CC2)cc1C -17.8%
COc1cccc(CNC(=O)C2CCN(Cc3cc4ccccc4n3Cc3ccccc3)CC2)c1OC -19.6%
Cc1ccc(NC(=O)CSc2nc3ccccc3nc2Cc2ccccc2)c(Cl)c1 -8.51%
Cc1ccc(CN2c3ccccc3-c3nc(SCC(=O)NCCc4ccccc4)ncc3S2(=O)=O)cc1 -18.2%
CCOC(=O)c1cccc(NC(=O)CSc2cc(=O)n(C)c3ccccc23)c1 -24.4%
CCOC(=O)c1ccc(Oc2nc(C)nc3c2oc2ccccc23)cc1 -17.6%
Cc1nnsc1C(=O)Oc1ccc(C#N)cc1 -3.89%
O=C(CN1C(=O)C2(SCC(=O)N2c2cccc(F)c2)c2ccccc21)NCc1ccccc1Cl (stereo not given) -28%
CCc1nc2ccccc2n1CCCCOc1cccc(C)c1 -25.7%
CC(C)(C)c1ccc(S(=O)(=O)c2cnc(SCC(=O)Nc3ccc4c(c3)OCCO4)[nH]c2=O)cc1 -0.945%
CC(C)CC(=O)NCC(c1ccc2c(c1)OCO2)N1CCN(c2ccc(F)cc2)CC1 (stereo not given) -14.9%
COc1cccc2c1cc1c(=O)n(CC(=O)N3CCN(c4ccc(F)cc4)CC3)nc(C)n12 -8.99%
CCCS(=O)(=O)c1nc(S(=O)(=O)c2ccc(C)cc2)c(NCCCOC(C)C)s1 -23%
COc1ccc2nc(SCC(O)c3cccc(Br)c3)[nH]c2c1 (stereo not given) 7.3%
Cc1ccc(Sc2ccc(N3CCCC(C(=O)Nc4ccc(F)cc4)C3)nn2)cc1 (stereo not given) -25.6%
COc1ccc(-c2cn3c(n2)sc2cc(C(=O)NCCCc4ccccc4)ccc23)cc1 5.3%
